# Laboratory results: ChEMBL document CHEMBL4888484, “Replenishing the malaria drug discovery pipeline: Screening and hit evaluation of the MMV Hit Generation Library 1 (HGL1) against asexual blood stage Plasmodium falciparum ,using a nano luciferase reporter read-out” (2022)
# The whole screen tested about 4,800 compounds, of which about 410 (8.5%) showed an effect of 50% or more. Some of the results follow.
# System: Plasmodium falciparum
# Test: Confirmatory screen in NF54 pLDH assay, in single point, at 2uM, 72h
# Format: functional, Erythrocyte
# Conditions: timepoint 72 hour
row,Structure (SMILES),% Inhibition
1,COc1ccccc1-c1n[nH]cc1CN1CC(=O)NCC12CCCC2,-9%
2,CCCOc1cccc2c(NC3CCN(CCOC)CC3)ccnc12,48%
3,CCC[C@H](C)c1cc(NS(=O)(=O)c2cnn(CC)c2)[nH]n1,10%
4,CC1CC(NS(=O)(=O)CCCC(F)(F)F)CCN1 (configuration not stated),-1%
5,O=C(Cn1ccsc1=O)c1cccc(Cl)c1Cl,-19%
6,Cc1ccc(CNC(=O)CCCC(=O)NCc2ccccc2)o1,-16%
7,CCN(CC)c1ccc(N2C(=O)c3c(Br)c(Br)c(Br)c(Br)c3C2=O)cc1,12%
8,CCn1cc(-c2cc(C(F)(F)F)nc(N3CCCC3)n2)cn1,10%
9,COc1ccc(-n2nc(C(=O)N3CCOCC3)c(=O)cc2OC)cc1,3%
10,CCOc1ccc(C2c3[nH]c4ccccc4c3C[C@H]3C(=O)N(C4CCN(Cc5ccccc5)CC4)CC(=O)N23)cc1OC (some centres not stated),79%
11,CC(C)[C@H](NC(=O)C(F)(F)F)C(=O)NC1CCN(c2ccccc2Cl)C1=O (some centres not stated),-7%
12,CCOc1ccc2ccccc2c1C(=O)Nc1cc(C)nn1-c1nc2c(c(=O)[nH]1)CCC2,91%
13,Cc1cccc(C(=O)ON2C(=O)CCC2=O)c1,-14%
14,CN1C(=O)c2ccc(S(=O)(=O)NCCn3ncnn3)cc2C1=O,4%
15,O=C1c2ccccc2[C@@H](Nc2ccc3c(c2)OCCO3)N1c1ccccn1,-8%
16,COc1ccc(-c2nc(-c3cccc(-c4nnc(N)o4)c3)sc2C)c(OC)c1,12%
17,CS(=O)(=O)N1CCC[C@H](Cn2nnnc2C=Cc2ccccc2)C1,8%
18,Cc1noc(C)c1CN1CCCN(C(=O)c2n[nH]c3ccccc23)CC1,7%
19,CCCCOc1ccc(-c2ccc(C)cc2)cc1[C@H]1Nc2ccccc2C(=O)N1c1ccccc1,10%
20,c1cc([C@@H]2CN(Cc3noc(C4CC4)n3)CCO2)cs1,7%
21,CCc1ccc(CN2CCC[C@H](c3ncc[nH]3)C2)nc1,52%
22,COc1ccccc1-n1c(=O)n(C2CCCC2)c(=O)c2c1ncn2Cc1ccccc1Cl,34%
23,O=C(CCc1nc2ccccc2c(=O)[nH]1)Nc1ccc(-n2cnnn2)cc1,6%

row,Structure (SMILES),% Inhibition
1,O=S1(=O)c2ccccc2N=NN1Cc1ccc(Cl)cc1,-19%
2,CN(C)c1ccc2cc(NC(=O)CCc3cnn(C)c3)ccc2c1,-5%
3,c1cnc2nc(-c3ccc4c(c3)OCO4)cn2c1,-1%
4,CCc1nc(C)ncc1C(=O)OCc1nccn1Cc1ccccc1,7%
5,Cc1cccc(NC(=O)CCC(=O)OCC(F)(F)C(F)F)c1C,1%
6,O=c1sc2c(n1Cc1csc(C3CCCCC3)n1)CCCC2,10%
7,Cc1cc(N2C(=O)CCS2(=O)=O)ccc1S(=O)(=O)NC1CCCC1,9%
8,CN1CCN(c2nc(O)c3c(n2)NC(=O)C[C@H]3c2c(F)cccc2Cl)CC1,-6%
9,Nc1cc(Br)c(C(F)(F)F)cc1NC(=O)C(F)(F)F,5%
10,Cc1cc(C(=O)NCc2ccco2)nn1C(F)F,7%
11,COc1ccnc(CN2CCC[C@H](c3nc(-c4ccccc4)c[nH]3)C2)c1OC,82%
12,Cc1ccc(N2C(=O)CN(CC(C)C)[C@H]3CS(=O)(=O)C[C@H]32)cc1,14%
13,Cc1cccc2[nH]cc(CCNC(=O)N3CCC4CCC(C3)N4C)c12 (configuration not stated),11%
14,CC(C)c1ncsc1C(=O)NC(C)(C)C(=O)NCC1CCCC1,-5%
15,O=S1(=O)C[C@H](N2CCN(c3ccccc3F)CC2)[C@@H](S(=O)(=O)c2ccccc2)C1,-4%
16,CCc1nnsc1C(=O)NC1CCCCCC1,10%
17,COc1ccccc1CC(=O)N(c1nc(C)cs1)C1CC1,-8%
18,O=C(N[C@@H](CN1CCCC1)c1ccccc1)N1CCC(c2ccn[nH]2)CC1,43%
19,N#Cc1c2ccc(O)cc2n2ccccc12,-10%
20,O=C(Nc1cccnn1)N[C@@H](c1ccccc1)c1ccc2c(c1)CCCO2,-20%
21,CCc1c(C)nn(S(=O)(=O)c2ccc3ccccc3c2)c1O,-3%
22,COc1ccc2c(c1)CN(C(=O)C1CC3CCC1C3)CC2 (configuration not stated),11%
23,c1ccc(-c2ccc(-n3nnnc3-c3ccccc3)cc2)cc1,-8%

row,Structure (SMILES),% Inhibition
1,COCCN(CC1CN(Cc2ccsc2)CC1c1cccc(F)c1)C(=O)C(C)C (configuration not stated),-1%
2,Cn1c(=O)c2sc(N3CCCC3)nc2n(CC(=O)NC2CCCC2)c1=O,4%
3,[O-]c1c(-c2ccccc2)sc2[n+]1ccc1sc(-c3ccccc3)c([O-])[n+]12,-16%
4,CN(C)CCCNCc1ccccc1F,10%
5,COc1ccc(-c2nn3c(N4CCN(CC=Cc5ccccc5)CC4)cc(C)nc3c2C)cc1OC,40%
6,CC(C)(C)c1ccc(-c2ccc(C(=O)NCC3(O)CCOCC3)o2)cc1,5%
7,COCCN(CC1CN(Cc2ccc(C)o2)CC1c1cccc(F)c1)C(=O)C(C)C (configuration not stated),-8%
8,O=C1N[C@@H](CC(=O)N2CCN(c3ccccn3)CC2)C(O)=Nc2ccccc21,6%
9,O=C(NCc1noc2c1CCCC2)NC[C@H]1CCCC1(F)F,5%
10,O=C(N[C@@H](Cc1ccccc1)C(=O)NC1CC1)c1cccnc1,6%
11,Cc1ccc(N2CCN(C(=O)c3ccco3)[C@@H](C)C2=O)c(C)c1,-11%
12,Brc1ccc2c(c1)CN(Cc1c[nH]cn1)CCO2,4%
13,c1csc(-c2noc(Cc3c[nH]c4ccccc34)n2)c1,-5%
14,CCCCCn1c(NCc2cc(Cl)ccc2O)nc2ccccc21,21%
15,CCO[C@@H](C)C(=O)Nc1cnns1,2%
16,COc1cc(OC)cc(C(=O)Nc2ccc3nc(N4CCC(C)CC4)cc(C)c3c2)c1,40%
17,CCOc1cc(Cl)ccc1C(=O)NC1CCN(C[C@H]2CCOC2)CC1,5%
18,O=S1(=O)N=C(n2ccnc2)c2ccccc21,-17%
19,C=CCNC(=O)CCC(=O)NCc1ccco1,13%
20,N#Cc1cnc(NC2CC3CCC2C3)cn1 (configuration not stated),-7%
21,COc1ccc(S(=O)(=O)N(CC(=O)N2CCN(Cc3ccc4c(c3)OCO4)CC2)C2CCCCC2)cc1OC,6%
